The whole screen tested about 310,000 compounds, of which about 14,000 (4.5%) showed an effect of 50% or more. The effect is printed as a negative number. The list shows a part of the results.
Target: human ether-à-go-go-related gene (hERG) potassium channel (human, UniProt Q12809)
Assay: primary screen, population patch clamp on CHO cells stably expressing hERG
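Further: peak tail current of the secondary pulse compared with the same well before compound.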

Sequence of human ether-à-go-go-related gene (hERG) potassium channel (Q12809 whole entry, looked up): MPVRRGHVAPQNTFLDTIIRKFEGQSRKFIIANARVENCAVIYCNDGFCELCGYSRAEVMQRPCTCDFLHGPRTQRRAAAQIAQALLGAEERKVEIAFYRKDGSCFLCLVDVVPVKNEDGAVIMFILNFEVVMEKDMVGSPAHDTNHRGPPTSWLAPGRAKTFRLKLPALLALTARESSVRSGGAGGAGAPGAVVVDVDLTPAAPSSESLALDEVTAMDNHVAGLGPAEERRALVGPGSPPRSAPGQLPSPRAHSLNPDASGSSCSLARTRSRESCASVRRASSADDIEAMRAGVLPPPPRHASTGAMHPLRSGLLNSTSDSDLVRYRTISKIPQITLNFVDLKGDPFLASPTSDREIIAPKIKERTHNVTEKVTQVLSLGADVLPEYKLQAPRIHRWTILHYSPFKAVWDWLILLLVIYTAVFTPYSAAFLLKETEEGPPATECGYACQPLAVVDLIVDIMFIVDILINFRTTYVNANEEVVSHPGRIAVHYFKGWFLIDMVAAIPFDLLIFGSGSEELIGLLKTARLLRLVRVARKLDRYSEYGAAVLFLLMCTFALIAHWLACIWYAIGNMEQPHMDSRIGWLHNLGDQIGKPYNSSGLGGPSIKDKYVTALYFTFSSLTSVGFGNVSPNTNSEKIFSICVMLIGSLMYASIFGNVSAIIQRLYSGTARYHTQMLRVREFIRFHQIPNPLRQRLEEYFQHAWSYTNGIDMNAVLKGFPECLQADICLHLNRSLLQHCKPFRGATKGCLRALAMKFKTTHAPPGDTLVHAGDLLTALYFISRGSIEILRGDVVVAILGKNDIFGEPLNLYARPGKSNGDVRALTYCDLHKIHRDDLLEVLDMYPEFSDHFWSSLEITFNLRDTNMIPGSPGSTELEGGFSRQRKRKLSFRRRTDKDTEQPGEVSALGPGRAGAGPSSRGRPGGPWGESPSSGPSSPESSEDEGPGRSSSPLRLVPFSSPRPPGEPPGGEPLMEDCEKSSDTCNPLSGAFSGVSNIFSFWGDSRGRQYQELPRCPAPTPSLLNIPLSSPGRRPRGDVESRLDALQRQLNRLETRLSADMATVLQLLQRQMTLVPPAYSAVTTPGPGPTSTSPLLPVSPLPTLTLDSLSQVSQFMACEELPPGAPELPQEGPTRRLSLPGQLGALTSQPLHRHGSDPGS

| SMILES | hERG current change (%, negative = inhibition) at 10uM |
| --- | --- |
| O=c1[nH]nc(Cc2ccc(-c3ccc(Cl)cc3)o2)c2ccccc12 | 5.52% |
| Cc1ccc(C)c(N2CCN(C(=O)c3ccc(NC4=NC5CS(=O)(=O)CC5S4)cc3)CC2)c1 (centres unmarked) | 2.89% |
| Cc1ccc(N=Nc2c(O)[nH]c3ccc(F)cc23)cc1 | 12.6% |
| CCOc1ccc(-c2nc(-c3cccnc3)no2)cc1OCC | 0.74% |
| CCCCCCCCNC(=O)c1cnccn1 | -7.1% |
| Cc1ccc(NC(=O)CSc2nnc3n2CCCCC3)cc1 | -4.15% |
| Cc1ccc(/C=N/Nc2nncc(-c3ccccc3)n2)o1 | 4.83% |
| CC(C)(C)C(=O)NC1CCN(S(C)(=O)=O)CC1 | 3.06% |
| CCOC(=O)C1=NN(c2ccc(F)cc2)C2=NC(C)=C(C(=O)OC)C(c3cccs3)N12 (centres unmarked) | -2.17% |
| C[C@H]1CCC(=O)N([C@H](COc2ccccc2)Cc2ccccc2)CC1 | -42.7% |
| O=C(c1ccco1)N1CCN(CC(=O)N2CCCc3c2c(=O)oc2ccc(O)cc32)CC1 | -5.14% |
| CCn1c(/C=C/c2ccccc2)nc2ccccc2c1=O | 3.96% |
| Cc1ccc(CS(=O)(=O)c2cn(CC(=O)Nc3ccon3)c3ccccc23)cc1 | 8.95% |
| O=C(Nc1cccc(Cl)c1)N1CCN(C2c3ccccc3-c3ccccc32)CC1 | 3.52% |
| Cn1c(SCC(=O)Nc2sc3c(c2C#N)CCC3)nnc1C1COc2ccccc2O1 (centres unmarked) | -2.94% |
| CN(C)/C(=N\O)c1c(Cl)cccc1Cl | 14% |
| CC(=O)NC(=S)Nc1ccc(NC(=O)c2cccnc2Cl)cc1 | -0.499% |
| CCOC(=O)N1CCC(NC(=O)CS(=O)(=O)Cc2nc(-c3cccc(Cl)c3)oc2C)CC1 | -18.3% |
| O=C(COc1ccccc1C(=O)N/N=C\c1ccc(O)c(O)c1)N/N=C/c1ccc(O)c(O)c1 | -1.33% |

| SMILES | hERG current change (%, negative = inhibition) at 10uM |
| --- | --- |
| Cc1ccc(SCC(=O)N2CCc3ccccc32)cc1 | 7.96% |
| COCCNC(=O)C(c1ccc(C)cc1)N(Cc1ccco1)C(=O)CCC(=O)Nc1ccccn1 (centres unmarked) | 11.6% |
| O=C(CSc1ncnc2nc[nH]c12)Nc1ccc(Br)cc1Cl | -0.422% |
| Cc1ccc(C(=O)NNC(=O)c2ccccc2-n2cccc2)cc1 | 19.8% |
| COc1ccccc1NC(=O)Nc1ccc(S(=O)(=O)Nc2onc(C)c2C)cc1 | 12.7% |
| CCOc1ccc(-c2noc(CCC(=O)NCC3CCCO3)n2)cc1OC (centres unmarked) | 0.963% |
| CCOC(=O)C1CCN(C(=O)COC(=O)c2nn(C)c(=O)c3ccccc23)CC1 | -18.8% |
| C=CCOC(=O)CSCC(NC(=O)OC(C)(C)C)C(=O)OCC (centres unmarked) | -0.265% |
| FC(F)(F)c1cccc(Cc2noc(CN3CCCC3)n2)c1 | 15.6% |
| CCCCOCCCNC(=O)c1ccc(OCC)cc1 | -13.8% |
| O=C1N/C(=N/Nc2ccccc2)S/C1=C\c1ccccc1 | -1.16% |
| COc1ccc(CCNS(=O)(=O)c2ccc3oc(C(=O)O)c(C)c3c2)cc1OC | 0.0936% |
| COC(=O)c1nnn(-c2ccc(Cl)c(Cl)c2)c1C(=O)OC | 4.96% |
| COCCN(CCOC)c1nc(-c2ccc(Cl)cc2)nc2ccccc12 | -5.82% |
| O=c1c2ccccc2oc2ccc(Oc3ccccc3)cc12 | 11.3% |
| C=CCOc1c(Br)cc(/C=N/NC(=O)Cc2ccc(C(F)(F)F)cc2[N+](=O)[O-])cc1OC | 21.1% |
| O=C(c1cccc(OCc2ccccc2)c1)N1CCOCC1 | -5.23% |
| Cc1ccc(N(CC(=O)Nc2ccccc2C(=O)N2CCOCC2)S(C)(=O)=O)cc1 | 10.5% |
| COc1ccccc1CCNC(=O)c1ccc(NC(=O)CC2SC(N3CCCCC3)=NC2=O)cc1 (centres unmarked) | 8.03% |

| SMILES | hERG current change (%, negative = inhibition) at 10uM |
| --- | --- |
| COc1ccc(C2CC(c3cccs3)=NN2C(=O)COC(=O)C2CCCCC2)cc1OC (centres unmarked) | -18.1% |
| Cn1nnc2cc(C(=O)NC3CCCCC3)ccc21 | -6.61% |
| NC(=[NH2+])SCC1=CCS(=O)(=O)C1.[Br-] | 17.4% |
| O=C1Cc2cc(S(=O)(=O)N3CCN(c4ccccc4)CC3)ccc2N1 | 14.1% |
| CC(=O)Nc1ccc(S(=O)(=O)NCc2nc(-c3cccc(C)c3)no2)cc1 | -0.261% |
| CNC(C)C#Cc1ccc2oc3cccc(OC)c3c(=O)c2c1 (centres unmarked) | -27% |
| Cc1occc1C(=O)N1CCCC(Nc2ccc(F)c(F)c2)C1 (centres unmarked) | -5.18% |
| O=C(COc1ccccc1Br)NCc1ccccn1 | -10.1% |
| CCOC(=O)CNC(=O)C12CC3CC(CC(C3)C1)C2 | 26.7% |
| Nc1nc(N)c2nc(CNc3ccc(C(=O)NC(CCC(=O)O)C(=O)O)cc3)cnc2n1 (centres unmarked) | 3.03% |
| O=C(COc1cccc(C(F)(F)F)c1)N1CCN(c2ccc(O)cc2)CC1 | -36.2% |
| CCN(CC(=O)Nc1ccc(NC(C)=O)cc1)C(=O)c1n[nH]c(=O)c2ccccc12 | -15.5% |
| Cc1ccc(S(=O)(=O)N(C)C)cc1NC(=O)CCNC(=O)c1ccccc1Cl | 8.56% |
| CCCCn1c(N)c(N(CC(C)C)C(=O)c2oc3ccc(OC)cc3c2C)c(=O)[nH]c1=O | 14.6% |
| CC1CC(C)CN(C(=O)c2ccc3c(c2)OCCO3)C1 (centres unmarked) | -6.59% |
| Cc1ccc(NC2=CC(=O)CC(C)(C)C2)c(N)c1 | -7.92% |
| CCOc1ccc(-n2c(N)c(C(=O)NCC3CCCO3)sc2=S)cc1 (centres unmarked) | -2.34% |
| Cc1ccc(NC(=O)Cn2nnc(C(=O)NCCc3ccccc3)c2N)c(C)c1 | 13% |

Reference: PMC4336329 (PLoS ONE, 2015)
